# In PubChem BioAssay (NCI):
# Values joined by “and” are separate entries in the source; they are usually repeats but may differ in a detail not shown here. Equal entries are not always repeated.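 How tested: cells in 96-well plates exposed to compound for 48 hours at five concentrations. GI50 marks 50% less growth. TGI denotes the concentration required for complete inhibition of growth.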
# Test system: NCI-H322M lung
# Assay: growth of human tumour cells (NCI), 48 h
Structure (SMILES),GI50,TGI
Fc1cccc(-c2nc(-c3c[nH]c4ncccc34)cs2)c1,77.9 µM,> 100 µM
CC(C)(C)CC(C)(C)c1cc2c(O)c(c1)Cc1cc(C(C)(C)CC(C)(C)C)cc(c1O)Cc1cc(C(C)(C)CC(C)(C)C)cc(c1O)Cc1cc(C(C)(C)CC(C)(C)C)cc(c1O)Cc1cc(C(C)(C)CC(C)(C)C)cc(c1O)Cc1cc(C(C)(C)CC(C)(C)C)cc(c1O)Cc1cc(C(C)(C)CC(C)(C)C)cc(c1O)Cc1cc(C(C)(C)CC(C)(C)C)cc(c1O)C2,,> 100 µM
Cc1cc(O)cc(-c2nn(C)cc2-c2cc(N3CCOCC3)nc(-c3cccnc3)n2)c1,6.27 µM,> 100 µM
O=S(=O)(N1CCCCN(S(=O)(=O)C(F)(F)F)CCCN(S(=O)(=O)C(F)(F)F)CCCCN(S(=O)(=O)C(F)(F)F)CCCN(S(=O)(=O)C(F)(F)F)CCCCN(S(=O)(=O)C(F)(F)F)CCCN(S(=O)(=O)C(F)(F)F)CCCCN(S(=O)(=O)C(F)(F)F)CCC1)C(F)(F)F,,> 31.6 µM
COc1ccc2c3c1OC1C4(CCC5C(C2)N(CC2CC2)CCC351)OCCO4 (centres undefined),,> 100 µM
COc1cc2c(cc1OC)C(Cc1cc(Br)c(OC)c(OC)c1)=[N+](C)CC2,,> 100 µM
CSc1ccc(NC(=O)CCl)cc1,,> 10 µM
COC(=O)c1ccc(N/C=C(/C#N)c2ccsc2)cc1,,72.1 µM
CCOC(=O)/C(=C/c1ccccc1)N(CC)CC,,> 100 µM
CN(CCc1ccccn1)c1ccc2c(c1)Cc1ccccc1-2,,> 100 µM
C#C[C@@H](OC(=O)c1ccc([N+](=O)[O-])cc1)[C@@H]1C[C@H]2O[C@@H]([C@H](C/C=C/CC)OC(=O)c3ccc([N+](=O)[O-])cc3)C[C@H]2O1,,> 100 µM
Oc1ccc(Cl)cc1C1=Nn2c(COc3ccc4c(c3)CCCC4)nnc2SC1,,47.5 µM
O=C1CCCc2cc3c(cc21)CC1(C3)Cc2cc3c(cc2C1)C(=O)CCC3,,> 46.4 µM
COc1cc(CO)cc2c1[nH]c1ccccc12,,> 25 µM
FC(F)(F)c1nc2c(ccc3[nH]c4c(-c5ccccc5)nccc4c32)[nH]1,,> 100 µM
COc1ccc(N2C(=O)C3c4[nH]c5ccc(OC)cc5c4C4CCC(c5ccccc5)CC4C3C2=O)cc1 (centres undefined),,> 100 µM
O=C1NC(=O)C23C(=O)NC(=O)C12C1C=CC3CC1 (centres undefined),,> 10 µM
CCOC(=O)c1cccc(N=Nc2ncc(/C=C/C(=O)OC)[nH]2)c1,,89.5 µM
O=C(O)c1ccccc1C(=O)Nc1cc2c(cc1Br)-c1ccccc1C2=O,,> 100 µM
COC(OC)[C@@H]1OC[C@H](n2ccc(=O)[nH]c2=O)[C@H]1O,,> 100 µM

Structure (SMILES),GI50,TGI
CCOC(=O)/C=C(/C(=O)OCC)n1cc(C)c(=O)[nH]c1=O,,28.8 µM
CC1=CC[C@@H]2C(=O)C=CC=C[C@H]12.[C-]#[O+].[C-]#[O+].[C-]#[O+].[Fe],86.9 µM,> 100 µM
CNc1cc(Cl)ccc1C(=O)N1CCC[C@H]1CO,,> 100 µM
CCOC(=O)n1ccc2c(C(=O)OC)c(C(=O)OC)cc(/C(=C/C(=O)OC)C(=O)OC)c21,,> 100 µM
CC[C@H](C)C(=O)O[C@H]1C[C@@H](C)C=C2C=C[C@H](C)[C@H](CC[C@@H]3C[C@@H](O)CC(=O)O3)[C@H]21,3.74 µM and 8.28 µM,> 100 µM and 40.6 µM and > 30 µM
NC(CCSCCF)C(=O)O (centres undefined),,> 100 µM
NCCNc1nc2ccc(F)cc2c2c(=O)c3cc(F)ccc3sc12,8.77 µM,21.1 µM
COc1ccc(-c2n[nH]c3nc4ccccc4n3c2=O)cc1,,> 100 µM
CCOC(=O)C1=C(Nc2cccc3ccccc23)OCC1=O,,> 100 µM
COC(=O)C(Br)(C(=O)OC)C(Br)C(Br)C(Br)c1ccccc1 (centres undefined),14.3 µM,27.7 µM
C#CCOCn1cnc2c(N)ncnc21,,> 100 µM
CC(=O)OCCC/C(=C/c1cc2ccccc2c2ccccc12)[N+](=O)[O-],1.64 µM,3.14 µM
COc1cc2c3c(n(CCCN=[N+]=[N-])c(=O)c2cc1OC)-c1ccc(NC(C)=O)cc1C3=O,> 50 µM,> 50 µM
N#CC(C#N)=C(N)/C(C#N)=C/c1ccc(O)c(O)c1,,> 100 µM
CN(C)CCSC(=Nc1ccccc1)n1cccc1,,> 100 µM
C=C(CN(C)C)C(=O)c1ccccc1Cl,,> 100 µM
COC(=O)[C@H]1C2CC[C@@H]3C45C[C@@H](c6ccoc6)O[C@@H]4O[C@@H](O2)C31CCC5C (some centres undefined),,> 100 µM
O=C1c2ccccc2-c2c1c1ccc3ccccc3c1n2-c1ccccc1,25.3 µM,61.1 µM
C[C@@H]1C[C@@H]2C(=O)N(c3ccccc3)C(=O)[C@@H]2c2[nH]c3ccc(Br)cc3c21,,> 100 µM
O=C(Oc1c(Cl)c(Cl)c(Cl)c(Cl)c1Cl)C1CCCN1C(=O)OCc1ccccc1 (centres undefined),3.5 µM,11.9 µM

Structure (SMILES),GI50,TGI
NC(=S)NN=C1Cc2ccccc2C1,,> 100 µM
C/C=C/C(O)P(=O)(OC)OC (centres undefined),,1.86 µM
CC(=O)NC(CCCCN(Cc1ccccc1)C(=O)N(C)N=O)C(=O)NCc1ccccc1 (centres undefined),,> 100 µM
O=CCC(O)C(O)C(O)CO (centres undefined),> 100 µM,> 100 µM
CN1CCN(c2ccc(NC(=O)c3cncnc3Nc3ccc4c(ccn4Cc4cccc(F)c4)c3)cc2)CC1,4.11 µM,8.26 µM
Cc1ccc(Nn2c(SCC(=O)Nc3nc(-c4ccccc4)cs3)nc(C)c2C)cc1,10.2 µM,> 100 µM
CCC1C[N+]2=C(c3cc(OC)c(OC)cc3CC2)c2c1cc1n2CCc2cc(OC)c(OC)cc2-1 (centres undefined),18.3 µM,75.2 µM
Cc1ccc([N+](=O)[O-])cc1NC(=O)/C(CC(=O)c1sc(C(N)=S)nc1C)=N\N,,> 100 µM
CNc1ccc(Cl)cc1C(=O)N1CCC[C@H]1CO,,> 100 µM
Clc1cccc(/C=c2\nc(-c3ccccc3)n3c2nc2ccccc23)c1,,> 100 µM
COc1ncc(-c2ccc3ncnc(Nc4cccc(Cl)c4)c3c2)cc1NS(C)(=O)=O,0.785 µM,8.61 µM
CC(=O)OCc1ncccc1C(OC(C)=O)OC(C)=O,,> 100 µM
c1cc2nnc1SCCSCCCSCCS2,,> 100 µM
N#CCc1nc(-c2cc3ccc(O)cc3oc2=O)cs1,,> 100 µM
COc1ccc(C2C(C(=O)O)=C(CO)Oc3cc4c(cc32)OCO4)c(OC)c1 (centres undefined),,> 100 µM
O=C(Cn1c2c(c3ccccc31)CCCC2)N1CCOCC1,,> 100 µM
Nc1ncnc2c1N=CN(Oc1ccccc1)N2,,> 100 µM
CCCCCC/C=C\CCCCCCCCCc1cccc(OC)c1O,,> 100 µM
Nc1csc(-c2scc3c2OCCO3)c1N,,> 100 µM
